Laboratory results: patent US10689423B2, “CTLA4-binding protein peptide-linker masks” (City of Hope, priority 2015, dated 2020)

How the values were obtained:
CTLA-4 = experiment: Size-exclusion chromatography analysis of CTLA-4 binding to mLcn2-Fc constructs; details: for SEC elution volume of construct incubated with CTLA-4: Superdex 200, apo CTLA-4 13.0 mL, apo constructs ~12.7 mL
[1] = target: T1, Monomeric extracellular CTLA-4 (Homo sapiens, UniProt P16410); experiment: SPR of masked, unmasked and unmodified mLcn2-Fc on immobilized monomeric CTLA-4; format: binding; details: monomeric CTLA-4 tethered to the chip
T1 construct: Monomeric extracellular CTLA-4 was immobilized at low density on a CM5 chip
T1 sequence (P16410 36-161 limits assumed): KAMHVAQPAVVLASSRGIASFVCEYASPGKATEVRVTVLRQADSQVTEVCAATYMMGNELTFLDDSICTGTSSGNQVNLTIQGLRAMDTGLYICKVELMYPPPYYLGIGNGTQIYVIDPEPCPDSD
Source text: (§1) FIG. 3A-3D: Design and activation of covalently masked mLcn2-Fc in vitro. FIG. 3A is cartoon of MMP9 substrate-containing linker (Masked) and uncleavable linker Mxx9; protease substrate sequences in red box. Sequence legend: GGSVPLSLYSGG (SEQ ID NO:46); GGSVPGSGSSGG (SEQ ID NO:47). […] FIG. 3C is a graph of SPR of masked, MMP9-treated unmasked, and unmodified mLcn2-Fc binding to CTLA-4: Top: Sensorgram of unmodified (blue), MMP9-treated unmasked (green), and masked mLCN2-Fc (red) analytes at concentration of 3000 nM. Bottom: Sensorgrams of masked (left) and unmasked mLcn2-Fc (right) analytes at concentrations of 3000; 1000; 300; 100; and 30 nM. FIG. 3D is a graph of flow cytometric analysis of mLcn2-Fc constructs binding to mouse T lymphocytes. […] Regulatory T cells were gated and analyzed. P values based on quadruplicate analyses were calculated against neg. control (AF647).
FIG. 8A-8D: Design and activation of masked mLcn2-Fc in vitro. […] Alexa Fluor 647-labeled unmodified, masked, and unmasked mLcn2-Fc were incubated with splenocytes from Foxp3gfp/KI DBA/2 mice and analyzed via flow cytometry. Regulatory T-cells were isolated by forward and side scatters, DAPI− staining, and GFP+ fluorescence. Four experiments on two murine spleens were performed and the averages were calculated±s.d. P values were calculated for the difference in AF647 staining. […]

[2] = test system: murine regulatory T-cells; experiment: Flow cytometry of AF647-labeled mLcn2-Fc constructs binding to murine regulatory T-cells; format: cell-based; details: splenocytes from Foxp3gfp/KI DBA/2 mice; P=0.004 vs unmodified, P=0.003 vs unmasked mLcn2-Fc
Source text: as §1
FIG. 8A-8D: Design and activation of masked mLcn2-Fc in vitro. […] Alexa Fluor 647-labeled unmodified, masked, and unmasked mLcn2-Fc were incubated with splenocytes from Foxp3gfp/KI DBA/2 mice and analyzed via flow cytometry. Regulatory T-cells were isolated by forward and side scatters, DAPI− staining, and GFP+ fluorescence. Four experiments on two murine spleens were performed and the averages were calculated±s.d. P values were calculated for the difference in AF647 staining.

[3] = test system: human CTLA4-Fc on Tni insect cells; experiment: Flow cytometry of Tni insect cells transiently expressing human CTLA4-Fc; format: cell-based; details: Alexa Fluor-647 conjugated variants
Source text: FIG. 10C: Flow cytometry analysis of Tni insect cells induced to transiently express human CTLA4-Fc. Cells were stained with Alexa Fluor-647 conjugated mLcn2-Fc variants and gated for Forward scatter/Side scatter, DAPI^−, singlet size (pulse width), and APC. Uninfected cells stained with mLcn2-Fc are shown in grey as a negative control.

[4] = test system: tumor-infiltrating lymphocytes (TILs) in B16 tumor tissues; experiment: In vivo detection of mLcn2 variants in B16 tumor tissues (IHC); details: i.v. 100 μg, melanoma-bearing mice, tumor samples 72 hr post-dose
Procedure: FIG. 4: In vivo detection of mLcn2 variants (CTLA-4 binding protein variants) in B16 tumor tissues.
(§2) FIG. 9: Biodistribution of mLcn2-Fc constructs in vivo. (A-C) Naïve mice were injected i.v. with 100 μg of indicated mLcn2-Fc construct and tissue samples were collected 48 hr. post-dose. Cryosections were stained for CD4 or CD8 (medium gray) and human IgG (light gray) from the thymus (A), spleen (B), and pituitary gland (C, IgG only). (D) Melanoma-bearing mice were injected as above and tumor samples were collected 72 hr. post-dose. 4′,6-diamidino-2-phenylindole (DAPI) nuclear staining shown in dark gray.
FIG. 17: Melanoma-bearing mice were injected i.v. with 100 μg of indicated mLcn2-Fc construct and tumor samples were collected 72 hr. post-dose. Cryosections were stained for CD4 or CD8 (medium gray) and human IgG (light gray). […] 4′,6-diamidino-2-phenylindole (DAPI) nuclear staining shown in dark gray.
(§3) In these experiments constructs were injected i.v. into C57/B16 mice bearing B16 melanomas. Three days after injection, tumor and tissue samples were collected and doublestained using antibodies recognizing either CD4 or CD8 and mLcn2 (e.g. human IgG-Fc). Membranes of both intratumoral CD4+ and CD8+ T cells were decorated with mLcn2 which was not detected on other cell types.

pituicytes = experiment: In vivo binding of mLcn2 variants to cells within the pituitary gland; details: naïve mice, i.v. 100 μg, 48 hr post-dose, human IgG staining
Procedure: FIG. 5: Binding of CTLA-4 antagonist mLcn2 variants to cells within the pituitary gland.
as §2
FIG. 18: Naïve mice were injected i.v. with 100 μg of indicated mLcn2-Fc construct and tissue samples were collected 48 hr. post-dose. Cryosections were stained for human IgG (light gray).
as §3

[5] = test system: CD4/CD8 negative cells in the spleen; experiment: In vivo binding of mLcn2 constructs in the spleen; set-up: species or system mice; details: not shown; potentially due to FcR binding
Procedure: as §2
FIG. 16: Naïve mice were injected i.v. with 100 μg of indicated mtLCN2-Fc construct and tissue samples were collected 48 hr. post-dose. Cryosections were stained for CD4 or CD8 (medium gray) and human IgG (light gray) from the spleen.
as §3

B1: Masked mLcn2-Fc: peptide 16 fused via MMP9-cleavable linker to N-terminus of mLcn2, fused to IgG1 Fc; SEQ ID NO:21 (protein, listed as Homo sapiens)
chain: AGSCWSPLPFMCGGSVPLSLYSGSQDSTSDLIPAPPLSKVPLQQNFQDNQFHGKWYVVGLAGNRILRDDQHPMNMYATIYELKEDKSYNVTSVISSHKKCEYTIATFVPGSQPGEFTLGNIKSYGDKTSYLVRVVSTDYNQYAVVFFKLAEDNAEFFAITIYGRTKELASELKENFIRFSKSLGLPENHIVFPVPIDQCIDGSRSGGTSGGGSVPGSGSSGSTSGSGKSSEGSGQ[human IgG1 Fc and a few adjoining residues cut from this listing]
SEC elution volume of construct incubated with CTLA-4 (CTLA-4): 12.85 mL | SEC elution of admixture with CTLA-4-Fc (CTLA-4; in the absence of MMP9): eluted at the same position as the individual components | SEC elution of admixture with CTLA-4-Fc (CTLA-4; incubation with MMP9): earlier elution, indicating the formation of a heterodimeric complex | masking of CTLA-4 binding (SPR) [1]: effectively occludes CTLA-4 | binding to regulatory T-cells (AF647 staining) [2]: significantly reduced binding to cells | binding to CTLA4-Fc expressing Tni cells [3]: limited binding | staining of CD4 or CD8 TILs in tumor [4]: membrane staining of tumor-infiltrating lymphocytes (TILs) | binding to pituitary gland cells (pituicytes): did not bind to normal tissue constituents | binding in the spleen [5]: bound to CD4/CD8 negative cells in the spleen

B2: Mxx9 mLcn2-Fc: masked mLcn2-Fc with inactive MMP9 cleavage site (negative control), SEQ ID NO:22 (protein, listed as Homo sapiens)
chain: AGSCWSPLPFMCGGSVPGSGSSGSQDSTSDLIPAPPLSKVPLQQNFQDNQFHGKWYVVGLAGNRILRDDQHPMNMYATIYELKEDKSYNVTSVISSHKKCEYTIATFVPGSQPGEFTLGNIKSYGDKTSYLVRVVSTDYNQYAVVFFKLAEDNAEFFAITIYGRTKELASELKENFIRFSKSLGLPENHIVFPVPIDQCIDGSRSGGTSGGGSVPGSGSSGSTSGSGKSSEGSGQ[human IgG1 Fc and a few adjoining residues cut from this listing]
SEC elution volume of construct incubated with CTLA-4 (CTLA-4): 12.85 mL | SEC elution of admixture with CTLA-4-Fc (CTLA-4; incubation with MMP9): No shift | staining of CD4 or CD8 TILs in tumor [4]: no reactivity | staining of CD4 or CD8 TILs in tumor ([4]; listed as noncleavable masked mLcn2): weak or no reactivity
